The campaign covered roughly 52,000 compounds. About 4,300 (8.3%) were called active. Rule as the data show it: active = survival mostly below about 52% (no sharp cut-off); inactive = mostly above about 56%. The list shows a part of the results.

The test system of this test is DeltatarO mutant. The experiment in a line: S. aureus survival, RN4220 and DeltatarO strains – OD600, teichoic acid synthesis inhibitors, primary screen (AID 463173). The conditions noted are these: S. aureus RN4220 wild type/DeltatarO growth, OD600, 18 h, active compounds read low, screened at 18.75 µg/mL (by protocol).
For `CCOC(=O)c1ccc(NC(=O)CSc2cc(-c3ccccc3)nc(C)n2)cc1`, the survival was active: 40%.

With `Nc1ccccc1NC(=O)CCC(=O)O`, the survival is inactive: 103%.

Regarding `COCCn1c(Cc2ccccc2)nnc1SCC(=O)N(C)C`, the survival was inactive: 81%.

`Cc1c(C(=O)N2CCCCCC2)c(S(=O)(=O)Nc2ccc(OC(F)(F)F)cc2)c(C)n1C`: the survival is inactive: 113%.

For the compound `CCOC(=O)C1CCCN(C(=O)c2cc3c(Cl)nc4ccccc4c3s2)C1` (configuration not stated), the survival was active: 26%.

Consider `COc1cccc2sc(N(Cc3cccnc3)C(=O)C3CCCCC3)nc12`, for which the survival was inactive: 86%.

Regarding `CC(C)c1nn2c(=O)cc(COC(=O)c3cccc(NC(=O)c4ccccc4F)c3)nc2s1`, the survival is inactive: 67%.

On to `CCOc1ccc(C2c3c(-c4ccccc4O)n[nH]c3C(=O)N2Cc2cccnc2)cc1OC` (configuration not stated), for which the survival was inactive: 90%.

On to `O=C(Nc1cccc(Cl)c1)C(Cc1ccccc1)n1cccc1` (configuration not stated), for which the survival is active: 11%.

`CC(C)CC(=O)Nc1nnc(S(=O)(=O)N(C)c2ccc(Cl)cc2)s1`: the survival is inactive: 107%.

In the case of `Cc1ccc(C)c(N(C)C(=O)CCNC(=O)Cn2cnc3ccccc3c2=O)c1`, the survival was inactive: 69%.

Consider `Cc1c(-c2ccc(Cl)cc2)c(=O)oc2c(CN3CCN(C)CC3)c(O)ccc12`, for which the survival was inactive: 107%.

Consider `CN1CCN(S(=O)(=O)c2ccc(Br)c3ccccc23)CC1`, for which the survival was inactive: 99%.

In the case of `O=C(CNC(=O)c1ccccc1Cl)OCc1cc(=O)n2nc(C3CC3)sc2n1`, the survival was inactive: 78%.

Consider `Fc1ccc(F)c(Nc2c3c(nc4ccc(Cl)cc24)CCC3)c1`, for which the survival was active: -18%.

For `CCN(CC)CCCNC(=O)c1c2c(nc3ccccc13)C(=O)N(C1CCCCC1)C2`, the survival is inactive: 95%.

For `CCN(CC)S(=O)(=O)c1ccc(Nc2ccc(-c3ccc4c(c3)OCCO4)nn2)cc1`, the survival was inactive: 91%.

With `CCOC(=O)c1ccc2c(c1)sc1nc(-c3ccc(OCC)cc3)cn12`, the survival was active: 44%.

As to `COc1cccc(CNC(=O)Cn2c(=O)cc(C(F)(F)F)c3c(C)nn(C)c32)c1OC`, the survival is inactive: 90%.

As to `O=C(NCCS(=O)(=O)N1CCN(c2ccccc2F)CC1)c1ccccc1C(F)(F)F`, the survival was inactive: 104%.

As for `Cc1cccc(-c2nc(SCc3cc(=O)c4cccc(F)c4[nH]3)n[nH]2)c1`, the survival was inactive: 101%.

Turning to `Cc1ccc(C)c(N2CCN(C(=O)CN3CCSc4ccccc43)CC2)c1`, the survival is inactive: 89%.

On to `COc1cc(C(=O)Nc2ccccc2OCc2cc(=O)n3c(C)csc3n2)cc(OC)c1OC`, for which the survival was inactive: 106%.

In the case of `CNCC(=O)NC(c1ccccc1)c1ccccc1`, the survival was inactive: 97%.

Regarding `CCOc1ccc(CCNC(=O)CSc2nnnn2-c2ccccc2Cl)cc1OCC`, the survival was inactive: 72%.

Consider `COCCn1c(=N)c(C(=O)NCC2CCCO2)cc2c(=O)n3ccccc3nc21` (configuration not stated), for which the survival is inactive: 63%.

Consider `O=S(=O)(Nc1ccccn1)c1cccs1`, for which the survival was inactive: 83%.

As for `CCN1CCN(C(c2ccc(C)cc2)c2sc3nc(-c4ccco4)nn3c2O)CC1` (configuration not stated), the survival was inactive: 67%.

Take `Cc1ccc(NCc2nnc(SCC(=O)c3ccc(C)cc3)n2C)cc1`: the survival is inactive: 118%.

Consider `O=C1Nc2ccc(S(=O)(=O)N3CCCC3)c3cccc1c23`, for which the survival is inactive: 101%.

As for `Cc1cccc2sc(N(Cc3cccnc3)C(=O)CCS(=O)(=O)c3ccccc3)nc12`, the survival was inactive: 89%.

With `COc1ccc(NC(=O)CCc2nc3cccnc3n2-c2ccccc2)c(OC)c1`, the survival is inactive: 62%.

Turning to `COc1ccc(N2C(=O)C(CC(=O)Nc3ccc(Cl)cc3)N(Cc3ccc4c(c3)OCO4)C2=O)cc1` (configuration not stated), the survival was inactive: 98%.

With `CS(=O)(=O)N(CC(=O)N1CCOCC1)c1cccc2ccccc12`, the survival is inactive: 76%.

On to `CCOC(=O)c1c(NC(=O)c2cc(=O)c3cc(Cl)ccc3o2)sc(C)c1C`, for which the survival was inactive: 51%.

`CC(C)Sc1ncc(Cl)c(C(=O)Nc2nc3ccc(S(C)(=O)=O)cc3s2)n1`: the survival is inactive: 96%.

`Cc1cc(-c2ccc(S(=O)(=O)Nc3cccc(C(F)(F)F)c3)s2)on1`: the survival is inactive: 108%.

In the case of `CCOC(=O)c1ccc(NC(=O)C2=C(C)C(=O)OC23CCCCCC3)cc1`, the survival was inactive: 81%.

As to `CN(C(=O)CSc1nc2ccc(NC(=O)COc3ccc(F)cc3)cc2s1)c1ccccc1`, the survival is inactive: 73%.

For `COC(=O)C1=NNC2(c3ccc(C)cc3)C(=O)N(c3ccc(C)cc3)C(=O)C12` (configuration not stated), the survival was inactive: 107%.

Take `Cc1c(Cl)cccc1NC(=O)c1cc(-c2cccs2)on1`: the survival is inactive: 66%.

With `CCOC(=O)c1c(C)[nH]c(C)c1S(=O)(=O)N(C)CC(=O)Nc1cccc(Cl)c1C`, the survival is inactive: 73%.

For `Cc1ccc(-n2ncc(C(=O)NCc3ccc4c(c3)OCO4)c2C2CCN(C(=O)OC(C)(C)C)CC2)cc1C`, the survival is inactive: 84%.

Turning to `COc1ccc(CN2CCCN(CC(=O)Nc3ccc(Br)cc3F)S2(=O)=O)cc1`, the survival is inactive: 88%.

With `Cc1ccc(NCc2cccn2-c2nnc(N3CCC(C(=O)NCc4ccccc4C)CC3)s2)cc1`, the survival was inactive: 92%.

For `Cc1c(C(=O)N2CCC(C)CC2)c(S(=O)(=O)Nc2cccc(C#N)c2)c(C)n1C`, the survival is inactive: 101%.

For the compound `CCOc1ccc(NC(=O)CC2Nc3cccc4cccc(c34)NC2=O)cc1` (configuration not stated), the survival was active: 37%.

Turning to `Cc1cc(N2CCOCC2)nc(=S)[nH]1`, the survival is inactive: 78%.

With `CC1=C(c2ccc(C)c(C)c2)S(=O)(=O)N=C1N1CCN(c2cccc(C)c2)C(C)C1` (configuration not stated), the survival is inactive: 72%.

For the compound `COc1ccc(C(=O)N2CCCCC2CCN2CCOCC2)cc1` (configuration not stated), the survival is inactive: 86%.

On to `CC(C)Cc1nn2c(=O)cc(COC(=O)c3cccc(NC(=O)c4cccs4)c3)nc2s1`, for which the survival is inactive: 83%.

As for `Cc1ccccc1Cn1c(=O)n(CC2CCC(C(=O)N3CCC(C)CC3)CC2)c(=O)c2sccc21` (configuration not stated), the survival is inactive: 73%.

As to `COc1ccccc1CNC(=O)CCCn1c(=O)c2ccccc2n(CC(=O)Nc2ccc(C)cc2Cl)c1=O`, the survival is inactive: 84%.

Consider `Cc1cc(C)c(NC(=O)C2CCN(C(=O)N3CC(C)Oc4ccc(Cl)cc43)CC2)c(C)c1` (configuration not stated), for which the survival is inactive: 56%.

With `Cc1cc(C)cc(NS(=O)(=O)c2ccc(-c3cc(C)no3)s2)c1`, the survival was inactive: 89%.

With `COc1ccc(NC(=O)c2cc3c(=O)n(Cc4cccs4)ccc3nc2C)c(OC)c1`, the survival was inactive: 92%.

In the case of `COc1ccc(NC(=O)Cn2c(=O)n(Cc3nc(C)no3)c(=O)c3cc4c(cc32)OCO4)cc1`, the survival was inactive: 99%.

The record behind these values is PubChem BioAssay AID463173 (ICCB-Longwood Screening Facility, Harvard Medical School, 2010).
